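Each compound was tested at five concentrations against cells in 96-well plates for 48 hours. The concentration for 50% growth inhibition is given as GI50. TGI marks complete inhibition of growth.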
test system: NCI-H322M lung; assay: inhibition of tumour cell growth, NCI panel, 48 h

| SMILES | GI50 | TGI |
| --- | --- | --- |
| CCCCSc1nc(NCCc2c[nH]c3ccccc23)c(C#N)c(-c2ccccc2)n1 | 16.6 µM | 38.3 µM |
| CN(C)CCn1c2ccccc2c2nc3ccc([N+](=O)[O-])cc3nc21 | 2.25 µM | 11.9 µM |
| Fc1ccccc1CNc1nc(SCCN2CCOCC2)nc2c1cnn2CC(Cl)c1ccc(Br)cc1 (stereo not given) | > 100 µM | > 100 µM |
| O=Cc1cncc(-c2ccc3ncnc(N4CCc5cc(F)c(Cl)cc54)c3c2)c1 | 2.11 µM | 9.79 µM |
| CCCCN1C(=O)/C(=C\C(=O)c2cc3ccccc3oc2=O)c2ccccc21 | > 100 µM | > 100 µM |

Reference: PubChem BioAssay (NCI)
